Values joined by “and” are separate entries in the source; they are usually repeats but may differ in a detail not shown here. Identical values can stand only once.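 How tested: cells in 96-well plates exposed to compound for 48 hours at five concentrations. Here, GI50 denotes the concentration required for 50% inhibition of growth. TGI is the concentration that stops growth completely.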 A value given as a limit tells only on which side of the number the result lay.

The test system of the assay is NCI-H322M lung. The experiment in a line: inhibition of tumour cell growth, NCI panel, 48 h.
For the compound `CCC/C(=N\NC(=S)N1CC2CCC(CC2)C1)c1ccccn1`, the GI50 was 0.0922 µM; the TGI was 1.81 µM and 1.48 µM.
As for `C/C(CC(O)(/C=N/O)c1ccccc1)=N/O` (configuration not stated), the TGI is over 100 µM.
Still for that read-out and setting: next, `O=C1C2=C(CC3=C(C2)CS(=O)(=O)C3)C(=O)C2=C1CC1=C(C2)CS(=O)(=O)C1`: over 67.9 µM; `COc1cc(NCCC2CCCCN2)c2ncccc2c1` (configuration not stated): over 100 µM.
Same read-out and setting: next, `CC(=O)OCC1OC(n2c(-c3ccccc3)c(C(C)=O)c(-c3cccc4ccccc34)c(C#N)c2=S)C(OC(C)=O)C(OC(C)=O)C1OC(C)=O` (configuration not stated): over 100 µM; `CC1(C)Cc2nc3c(cc2C(=O)C1C=N/C(C#N)=C(\N)C#N)C(=O)C(C=N/C(C#N)=C(\N)C#N)C(C)(C)C3` (configuration not stated): 9.79 µM.
Regarding `O=C1c2ccccc2-c2nnc3c(c21)-c1ccccc1C3`, the TGI is over 100 µM.
Same read-out and setting: as for `CCOC(=O)c1cc2/c(=C\c3ccc(N(C)C)cc3)c3ccccc3n2[n+]1C`, the figure is 15 µM; as for `CC1CCCC(C(O)CC2CC(=O)NC(=O)C2)C1O` (configuration not stated), over 100 µM.
With `CCN(CC)CC(O)CNc1c2ccc([N+](=O)[O-])cc2nc2cc(OC)c(OC)cc12` (configuration not stated), the GI50 is 0.249 µM and the TGI turned out to be 0.801 µM.
`COc1ccccc1C1ON=C(c2ccc([N+](=O)[O-])cc2)N1C12CC3CC(CC(C3)C1)C2` (configuration not stated): the TGI was over 100 µM.
As for `Cc1cccc2c1c(=O)c1c(O)c3c(cc1n2C)OC(C)(C)C=C3`, the TGI was over 10 µM.
The same measure, in the same setting: as for `N#CC(Cc1ccccc1)N(CCC1=CCCCC1)Cc1ccccc1` (configuration not stated), the figure is over 100 µM; as for `N#Cc1c(N2CCC(O)C2)c2ccccc2n2c1nc1ccccc12` (configuration not stated), over 100 µM.
For `CC(C)=CCC/C(C)=C/CC/C(C)=C/CSc1ccccc1C(=O)O`, the GI50 is 25.7 µM; the TGI is 64.6 µM and 36 µM.
Take `Cn1cnc([N+](=O)[O-])c1Sc1nc(N)nc2c1ncn2C1CC(O)C(CO)O1` (configuration not stated): the TGI was over 100 µM.
Still for that read-out and setting: as for `C/C(=N\NS(=O)(=O)c1ccc(C)cc1)P(=O)(O)O`, the figure is over 100 µM; as for `Cc1cccc(C(C)(C)C)c1NC(=O)CC1C(=O)Nc2ccccc2S1(=O)=O` (configuration not stated), 27.1 µM.
As to `COc1cccc(NC(=O)c2sc3nc(C)c(C(O)c4ccccc4)cc3c2N)c1` (configuration not stated), the GI50 is 0.763 µM and the TGI came to 22.2 µM.
With `CCCCCCCCCCCCCCCCCCNC(=S)/N=C\C1=C(O)c2ccccc2C1=O`, the TGI is 21.4 µM.
`C[n+]1c2cc(N)ccc2cc2ccc(N)cc21`: the GI50 is 1.59 µM [middle of 4 runs] and the TGI was 8.75 µM [middle of 4 runs].
`CC(=O)C1C(c2ccc(N(C)C)cc2)c2cc3c(cc2OC1(C)O)OCO3` (configuration not stated) gave a TGI of over 100 µM.
On the same count and under the same terms, as for `O=C(O)CCC(N=Cc1nc(-c2ccccc2)oc1O)C(=O)O` (configuration not stated), the figure is over 100 µM; as for `O=c1c2cc3c(=O)n4c(cc(-c5ccccc5)c5cc(Cl)ccc54)nc3cc2nc2cc(-c3ccccc3)c3cc(Cl)ccc3n12`, over 100 µM.
Turning to `c1ccc(CN2COc3c(ccc4c3OCN(Cc3ccccc3)C4)C2)cc1`, the GI50 is 0.562 µM and the TGI is over 100 µM.
As to `COc1ccc(CCCNC(=O)c2cc(OC)c(OC)cc2CCO)cc1OC`, the TGI was over 100 µM.
Still for that read-out and setting: as for `CC(C)=CC(Cc1ccccc1)S(=O)(=O)c1nc2ccccc2s1` (configuration not stated), the figure is 40.4 µM; as for `COC(=O)C(C(=O)OC)C1CCCC(=O)C1` (configuration not stated), over 100 µM.
As for `O=C(Cc1ccc(F)c(F)c1)Nc1cc(C2(C(F)(F)F)CC2)nn1Cc1ccccc1`, the GI50 was 3.75 µM and the TGI was over 15 µM.
As to `Nc1nc2ncc(CNc3ccc(C(=O)NC(CCC(=O)O)C(=O)O)cc3)nc2c(=O)[nH]1` (configuration not stated), the TGI was over 100 µM.
In turn, `COC(=O)c1cccn1C(=O)n1cccc1` had a TGI of over 100 µM.
On to `COc1ccc2c(=O)cc(C(Cl)(Cl)Cl)oc2c1`, for which the GI50 is 7.38 µM and the TGI stood at 28.7 µM.
`Cc1nc(-c2cn3c(n2)-c2ccc(-c4cnn(C(C)(C)C(N)=O)c4)cc2OCC3)n(C(C)C)n1`: the GI50 was 0.116 µM and 0.117 µM; the TGI is 11.4 µM and > 9.65 µM.
With `C[As](C)SCC(COC(=O)C(Cl)c1ccccc1)OC(=O)C(Cl)c1ccccc1` (configuration not stated), the GI50 was 4.4 µM and the TGI turned out to be 16.7 µM.
For the compound `COc1ccc(/C=C2\CCS(=O)(=O)c3ccccc3C2=O)cc1`, the TGI worked out at 63.3 µM.
For `CC(C)=CCC/C(C)=C/CC/C(C)=C/CC/C(C)=C/CC/C(C)=C/CC/C(C)=C/CC/C(C)=C/CC/C(C)=C/CC/C(C)=C/CO`, the TGI was over 100 µM.
In the case of `Nc1c(C(=O)Nc2cccc(F)c2)sc2nc3c(cc12)C(=O)CCC3`, the GI50 was 0.569 µM and the TGI is over 100 µM.
`Cc1c(N2CCN(C)CC2)nc2ccc(Cl)cc2c1-c1ccccc1` gave a TGI of 29 µM.
On the same count and under the same terms, as for `Oc1ccc(C(c2ccc(O)cc2)c2ccc(O)cc2)cc1`, the figure is 57 µM.
Regarding `COc1cc(C2SCC(=O)N2c2ncc(C)s2)cc(OC)c1OC` (configuration not stated), the GI50 is 33.2 µM and the TGI is over 50 µM.
`S=C1CCSc2c(ccc3ccccc23)N1` yielded a TGI of over 100 µM.
The same measure, in the same setting: next, `Nc1nc2c(ncn2C2C=CC(CO)C2)c(=O)[nH]1` (configuration not stated): over 100 µM.
As for `S=C(Nc1ccc(-c2nc3ccccc3[nH]2)cc1)Nc1ccc(-c2nc3ccccc3[nH]2)cc1`, the GI50 was over 100 µM and the TGI is over 100 µM.
Take `CC(=O)c1c(C)[nH]c(-c2nc3ccc(N4CCN(C)CC4)cc3[nH]2)c1-c1ccc(N(C)C)cc1`: the GI50 was 1.35 µM and the TGI is over 66.3 µM.
As for `N#CC(=N)c1ncn(-c2ccc(N)cc2)c1N`, the TGI is over 100 µM.
As for `CS(=O)(=O)CCc1cccc(C(=O)c2cnn(-c3ccc(F)cc3)c2N)c1`, the GI50 is over 25 µM and the TGI is over 25 µM.
`CC(C)O/N=C/c1cc(NC(=S)OC(C)C)ccc1Cl` returned a TGI of over 100 µM.
Still for that read-out and setting: next, `CS(=O)(=O)c1ccc(N=C/C=C/Nc2ccc(S(C)(=O)=O)cc2)cc1`: over 100 µM.
As for `CCC(=C/[C@H](C)C/C=C/C(C)=C/[C@@H](C)C(=O)[C@@H](C)[C@H](O)[C@@H](C)CC)/C=C/[C@@H]1OC(=O)C=C[C@H]1C`, the GI50 was under 0.01 µM and the TGI came out at 3.01 µM.
`COC1CC(COCc2ccccc2)CC(OC)O1` (configuration not stated) registered a TGI of over 100 µM.
The same measure, in the same setting: next, `O=C(c1ccccc1)c1ccc2[nH]c(-c3c(Cl)c(Cl)c(Cl)c(Cl)c3C(=O)N/N=C/c3cccc(Oc4ccccc4)c3)nc2c1`: over 100 µM.
Same read-out and setting: as for `COC(=O)c1ccc(N=NN(C)COc2ccc(Br)cc2)cc1`, the figure is over 100 µM.
As for `CCN(CC)CCCNCc1cc(-c2ccccc2)nc2ccccc12`, the GI50 was 30.3 µM and the TGI was over 100 µM.
`Cc1cc(/C=C/c2cc[n+](C)c3ccccc23)c(O)c2ncccc12` yielded a TGI of 11.5 µM.
In turn, `O=C1CSC(c2ccccc2[N+](=O)[O-])N1c1ccc(-c2ccc(-n3c(-c4ccccc4)nc4ccccc4c3=O)cc2)cc1` (configuration not stated) registered a TGI of over 100 µM.
On the same count and under the same terms, next, `CCC(=O)Nc1ccc(NC(C#N)c2cccc(Oc3ccccc3)c2)cc1` (configuration not stated): over 100 µM; `O=C1C(=O)N(c2cccc(C(F)(F)F)c2)C(=S)N1c1ccccc1`: over 100 µM.
On the same count and under the same terms, next, `NC(=O)/N=C1/CCC2C3CCCC2C13`: over 100 µM.
`CC(C)(C)c1cc(-n2c(-c3ccc(Cl)cc3)nc3cc(C(=O)Nc4ccc(Cl)cc4)ccc32)n[nH]1`: the GI50 was 40.5 µM and the TGI is over 100 µM.
In turn, `COc1cc(N(C)C)c(OC)cc1/C=C\c1ccnc2ccccc12` registered a TGI of over 10 µM.
In turn, `NC(=O)NCCCC(NC(=O)OCCCCCCn1ccc(=O)[nH]c1=O)C(=O)O` (configuration not stated) registered a TGI of over 100 µM.
Turning to `COc1ccc2ccccc2c1C1NC(=O)c2ccccc2N1` (configuration not stated), the TGI was over 100 µM.
On the same count and under the same terms, as for `CC(=O)OCC1OC(Nn2c(=O)[nH]c3ccccc3c2=O)C(OC(C)=O)C(OC(C)=O)C1OC(C)=O` (configuration not stated), the figure is over 100 µM; as for `Cc1c2c(c(O)c3c(O)cccc13)C(=O)C1(O)C(O)=C(C(=O)NCNc3ccc(C(N)=O)cn3)C(=O)C(N(C)C)C1C2` (configuration not stated), over 100 µM.
On the same count and under the same terms, next, `CC(C)NC(=O)N(Nc1ccccc1)C(C)(C)C`: over 100 µM; `COC1C(O)C(n2ncc3c(SC)nc(SC)nc32)OC1C(O)CO` (configuration not stated): over 100 µM; `Cc1cc(Cc2cc(C)c(NC(=O)C(=O)C3CCC4=C(SC5C=CC=CC5N4)C3=O)c(C(C)C)c2)cc(C(C)C)c1NC(=O)C(=O)C1CCC2=C(SC3C=CC=CC3N2)C1=O` (configuration not stated): over 100 µM.
The same measure, in the same setting: as for `OC(c1ccc(C(F)(F)F)cc1)C(F)(F)c1nc2ccccc2o1` (configuration not stated), the figure is over 100 µM; as for `NCC1OC(n2cnc3c(N)ncnc32)CC1O` (configuration not stated), over 100 µM; as for `COc1ccc(Cc2nnc(Nc3ccc(Br)cc3)[nH]c2=O)cc1OC`, over 100 µM.
With `C#Cc1c(/C=C/C(=O)OCC)ccc2ccccc12`, the GI50 is 61.7 µM and the TGI is over 100 µM.
On the same counts, the results for `COC(=O)c1cc(O)c2cc3c(cc2c1-c1cc(OC)c(OC)c(OC)c1)OCO3` are 4.34 µM and over 100 µM.
`CCOC(=O)C1(C(=O)OCC)OC(C)=NC1(C(=O)OC)C(=O)OC` registered a TGI of over 100 µM.
For the compound `CCOC(=O)c1cc2c(cc1Cl)SC(N(c1ccc(OC)cc1)S(=O)(=O)c1ccc(Cl)cc1)=NS2(=O)=O`, the GI50 was over 100 µM and the TGI is over 100 µM.
Consider `Cc1cc(N2CCOCC2)nc(N[C@@H]2CCC[C@H](Nc3ccnc4cc(Cl)ccc34)C2)n1`, for which the GI50 is 2.24 µM and the TGI is 6.29 µM.
On the same counts, the results for `O=C(NCCCO)c1cc(Cl)ccc1O` are 6.45 µM and 30.6 µM.
Consider `N#Cc1c(-c2ccc(Cl)cc2)[nH]c(=O)n(C2OC(CO)C(O)C(O)C2O)c1=O` (configuration not stated), for which the TGI was over 100 µM.
The same measure, in the same setting: as for `NC(=O)Cc1nc2c(N)ncnc2n1C1OC(CO)C(O)C1O` (configuration not stated), the figure is over 100 µM; as for `CC(=O)OC[C@@H](COC(=O)/C=C/c1ccc(O)cc1)OC1OC(CO)C(O)C(O)C1O` (some centres not stated), over 100 µM; as for `Cc1ccc(S(=O)(=O)NC2(C=O)CCCC3CCCCC32)cc1` (configuration not stated), over 100 µM.
Take `CCOC(=O)C1=NN(c2ccc([N+](=O)[O-])cc2)[C@@]2(C)C[C@]3(c4ccccc4)N(c4ccc([N+](=O)[O-])cc4)N=C(C(=O)OCC)N3c3ccccc3N12`: the TGI is over 100 µM.
On the same count and under the same terms, as for `COc1ccc(-c2cc(=O)c3cc(OC)ccc3[nH]2)cc1`, the figure is over 100 µM; as for `CN(C)CCn1c(=O)c2ccc(NCCN3CCNCC3)c3c(=O)c4ccccc4n(c1=O)c23`, 21.4 µM.
`Cc1ccc(O)c(C2=CC(c3cccc(Cl)c3)SC(N)=N2)c1` (configuration not stated) had a TGI of over 100 µM.

The values are drawn from PubChem BioAssay (NCI).
